Test results reported in the supplement of paper PMC11417369.
The list shows a part of the results.

system: PfSIP2 AP2 domain 1 (GST-tagged); experiment: gcPBM binding intensity (ln(normalized median fluorescence intensity)); higher = stronger DNA binding
In short: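 The highest Masliner-normalised natural-log median intensity across replicate spots of either probe orientation is reported as binding intensity. GST-tagged P. falciparum DNA-binding domains expressed in E. coli were applied for 1 h to an Agilent 4 × 180k array of primer-extended double-stranded 36-bp intergenic genomic probes plus negative controls, and bound protein was detected with Alexa488 anti-GST antibody and scanned at 488 nm.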

| Sequence | gcPBM binding intensity (ln) |
| --- | --- |
| ATATATACATATAAATGTACATAATTATTATGCACA [XGTACX_site1261] | 9.26 |
| ATAAAAAGAAAAAAGGGTACACTATACTATTTAAAA [XGTACX_site4467] | 7.18 |
| CTACATATTAATATATGTACATATTAATATATCTAA [XGTACX_site7118] | 7.01 |
| TGTTGATAAAAAATAAAAAATAAAAAAATAAAATAT [TGCATGCA_negctrl_site559] | 6.88 |
| AATGTGCACACGCGTACACACAAAAAAAGAAAAAAA [CACACA_site7031] | 9.68 |
| TATTATTTGAGTAGTTGTACTCATTAATATATAAAA [XGTACX_site3468] | 7.45 |
| TATTAATTTCACCTTTCACATATGGAAAAAAAAAAA [CACACA_negctrl_site1243] | 7.03 |
| CAAAATATTTATATCACACATATAAATAAAAATAAA [CACACA_site6028] | 6.98 |
| ATTAACATTTTCGTATGTACATATATAATATATGTT [XGTACX_site7184] | 7.1 |
| ATGTTTATTTATTTATGTACTTATATATTTATATAT [XGTACX_site7924] | 7.15 |
| AATAAAAATAAAAATTGTACACTTTTTTAATATTTA [XGTACX_site892] | 6.72 |
| TTTCCAAATACAACTACACACAAACAAAAATTATAT [CACACA_site4641] | 7.25 |
| TATCTCATAGTATACACACACACACGCGCACATATA [CACACA_site6917] | 7.6 |
| TGTATATATTATATTTGTACATATAAAACTATATGT [XGTACX_site4782] | 6.97 |
| TTTTGGTGGGTTACAAGTACTCAAAATGGATTGTTA [XGTACX_site1951] | 6.94 |
| AAAAAAAAAAAAAAAACATGCAATAAAGTGTGCGTA [TGCATGCA_site982] | 7.5 |
| TTAAATATATGTAATACGCACACTTAATATTTTGAG [CACACA_site4170] | 6.97 |
| TTTCGAAAAACAACAAGAAAAAAAAAAAAAAAAAAA [XGTACX_negctrl_site449] | 6.76 |
| TCACATACATTACTTACACACCATATTGATATATAC [CACACA_site6353] | 7.39 |
| ATTAAATCCGCACGCACACACACATATTAATAAAAA [CACACA_site3992] | 7.83 |
| TAAAAAAGAAAATATATACACACCAAAAAAAAAAAA [CACACA_site3146] | 6.82 |
| AAACAAAAAAATTGAAATAAAATGAAGTAAATGAAC [TGCATGCA_negctrl_site129] | 7.52 |
| ACATGTCTTAAAAGACGTACATATAAAAGAACCCTA [XGTACX_site8940] | 7.01 |

| Sequence | gcPBM binding intensity (ln) |
| --- | --- |
| AATATTAAAGAATAATGTACAAAATAAAAGCAAAGA [XGTACX_site3550] | 7.67 |
| TTATTTTTTAAAAGTAGTACAAATTTTTATAGAAAA [XGTACX_site7407] | 7.09 |
| ATTCCTTGGTTGTATAGTACTTTGGTTAAACATAAA [XGTACX_site6967] | 7.4 |
| CAATATTTGTTATGGGTGCAAACCGCATATATATAA [GTGCAC_site9543] | 11 |
| ATATATATATATAATAGTACATATATTTTGAAAGAT [XGTACX_site5800] | 8.58 |
| TATGTGTGAAAAAAATGTACATATATATAAATTATA [XGTACX_site7202] | 7.07 |
| AACTGTAAAAAATATAAACACACATAGAAATATATA [CACACA_site8002] | 7.01 |
| AATTAAAAAAGTAATTAACACACAATAATGTAATGC [CACACA_site9388] | 6.9 |
| GTTCTGTAAATACGTGCACACACAAATCACAAATGT [CACACA_site7999] | 10.1 |
| AAAGAAATGAAATATACACACATACATATATACATA [CACACA_site9335] | 6.7 |
| GATATATTTTATATATGTACATACAATGGTAAATAT [XGTACX_site2759] | 7.09 |
| TTTTTTTTCTTTTTTTGTACATAATAATATATAAAT [XGTACX_site6778] | 7.03 |
| AAAAATGAAAAATGAAAAATGAAAAATGAAAAATAA [CACACA_negctrl_site695] | 6.87 |
| TATTCTTACAAAAGTAGTACAATCATTCATATTTTT [XGTACX_site631] | 6.99 |
| TAGTTTCAAGTAGGACGTACATATAAAAGGATTTTT [XGTACX_site7136] | 6.87 |
| GGATATTATATAAAGTGTACAAGACAAATATATACA [XGTACX_site8173] | 7.12 |
| ATATATCAAGGGAGTGAATGTTATGCATATGAATAT [TGCATGCA_negctrl_site573] | 7.07 |
| AAATTAACAAACTGTAGTACTAACAATATATACAAA [XGTACX_site1772] | 7.13 |
| AAAAAAAAAAAACACACACACAAAATAAACAAACAA [CACACA_site2721] | 7.16 |
| ATTATAATTATCAAGGTGCGTGTATTATAATAAATA [GTGCAC_site9917] | 9.46 |
| TAATATAATAATAATTGTACTTTTCATAGTGTAATT [XGTACX_site8152] | 6.85 |
| TTATAATCAATGAATACACACATATATTTAATTAAT [CACACA_site3613] | 6.97 |
| AATTTTCCATAGATTGTGCACAAATTTTTATTTTGT | 8.58 |

| Sequence | gcPBM binding intensity (ln) |
| --- | --- |
| AAGAAAAAGACTTCATGAAAAAGAATTTTTTTAATT [TGCATGCA_negctrl_site473] | 6.44 |
| ATATATTTTTTTTTTATTTTATTATTATAATTTATC [XGTACX_negctrl_site16] | 7.02 |
| TAATATTATTTTTCAGTGCAATATAACCTTAGAATT [GTGCAC_site9417] | 7.34 |
| ATTTTATTTTTTTGAAGTACGAATTCCGAGAAGAAA [XGTACX_site43] | 7.48 |
| AAACAAAACAACTAAGTGCATAAAAATAAAATAAAT | 8.04 |
| TATAGTTCTTCTATTTGTACATATATTATTATTTAA [XGTACX_site895] | 6.9 |
| TATTCAAAAATATAAACAATGAAACAGTATAATATG [CACACA_negctrl_site1482] | 7.09 |
| TTTTAAGGTGTGAAGGTGCAAAAAGGTAAATAGGAA | 10.8 |
| TAAACAGAAGCACATACACACACTCAAAAAAAAAAA [CACACA_site3051] | 7.15 |
| AAAATACATAAACACACACACACACCGATATATATA [CACACA_site9186] | 7.52 |
| CACAAACACCCAAACACACACACACCGACATACATA [CACACA_site4410] | 7.21 |
| AAAAAAAAAAAAGGCACACAAACATATGTAGACATA [CACACA_site2284] | 7.03 |
| TCGTGTGTAATATTATATATATATATATAATATATA [TGCATGCA_negctrl_site289] | 7.78 |
| TCTTTTATATTGTAGAGTACATATTTTCAATATATA [XGTACX_site5586] | 6.95 |
| TTCTTTTATAAAAGTAGTACAATTATATTGTAATTA [XGTACX_site2855] | 7.14 |
| AAATTGTCAAAACACGCACACACATATACATAATAA [CACACA_site1743] | 7.49 |
| GTGATACGCTATAGGACACACGCTTAATAATTATAA [CACACA_site1694] | 6.95 |
| ATCATAAATTATTATACACACAATACGTGACCTATT [CACACA_site1906] | 7.06 |
| TCTATGTAGTTTTTATGTACTAAATAAATAAATAAA [XGTACX_site2599] | 7.29 |
| TAGAAGCAGAAACACACACACATACATACACATACA [CACACA_site1467] | 7.09 |
| TTTTCAATATATATTTGTACTTTATTTTATGATATT [GTGCAC_negctrl_site732] | 7.13 |
| GCATTCATTTTTAATACACACAAAAAAAAAATAAAA [CACACA_site2408] | 7.3 |
| ACTATTAACAGTGTAGTGCAAAAAGGTTAATTATTA | 8.89 |

| Sequence | gcPBM binding intensity (ln) |
| --- | --- |
| TAAATGTCCTTATTTGCACACACACCGATAAGAAAT [CACACA_site5723] | 7.47 |
| TACATATATATTTGTTCACACACACCCAAAAAAAAA [CACACA_site8788] | 7.01 |
| TACGCACAAAAATATACACACACACCGATATATTTA [CACACA_site9213] | 7.15 |
| AGACATTTTTAAGCAAAACATTCATCATCTTATAAT [CACACA_negctrl_site1539] | 6.74 |
| TATTTTACACATTTACGTACATAAATATATATATAT [XGTACX_site8788] | 8.5 |
| CTAACAACCAAACGCACACACACAAAAAAAAAAATA [CACACA_site400] | 7.51 |
| TTTGAAATGATATATAAACACACATATATATATATA [CACACA_site9170] | 9.67 |
| ATATTGAATTCCAACACATGCAAAACTTTCGGTTTT [TGCATGCA_site485] | 6.82 |
| TATTAAAAGGTGAGTACACACATATATGCGTATATA [CACACA_site2102] | 6.96 |
| AACAACTATTAATTTACACACATGTATATATCTTAC [CACACA_site7459] | 7.07 |
| TATGTAAAAACAGGCACACATATATCATATATATAT [CACACA_site619] | 8.87 |
| TATGTATGCCTGTTTTGTACTTAAGAAAATGTTGCT [XGTACX_site8443] | 6.95 |
| AAAAAAAAAAAAAAAAGTACATAATATAAAATCTAA [XGTACX_site6019] | 7.54 |
| TATAAATATATATGTACACACATATACATGTTGAAT [CACACA_site3118] | 7.09 |
| TATAAACATAAATATACACACAAACATCTATGTATT [CACACA_site4804] | 6.81 |
| AAAAAAAAATATCACACACACATAAATATAAACCAA [CACACA_site2279] | 6.95 |
| AAAAAAAAAAAAACTACACACATAAAATATATTGTG [CACACA_site805] | 7.05 |
| TAAAACATCAAGGGGTGTACAAAAAAGATGAACAGG [XGTACX_site6929] | 7.28 |
| AGAGCATAATAAAACACACACATACATACATATATA [CACACA_site935] | 6.91 |
| ATTGGGTTCATCAGCACACACAACATCATGTAATAA [CACACA_site5093] | 6.98 |
